Data reported in PubChem BioAssay AID488969 (Vanderbilt High Throughput Screening Facility, 2010).
In all, about 110,000 compounds were measured (“z-score”: median about -0.1, highest 2% from about 2 on). The list shows a part of the results.

These compounds were tested against Metabotropic glutamate receptor 8 (Rattus norvegicus) (UniProt P70579) (assay: rat mGluR8 modulators via GIRK flux, primary screen, cell-based, thallium flux, HTS (AID 488969)). Details: HEK293 rat mGluR8, GIRK (G protein-gated inwardly rectifying potassium channel) thallium flux, FluoZin2; at 10 µM; stronger effect = higher value; submaximal glutamate (EC20) added with thallium.
Sequence of UniProt P70579 (P70579 whole entry, looked up): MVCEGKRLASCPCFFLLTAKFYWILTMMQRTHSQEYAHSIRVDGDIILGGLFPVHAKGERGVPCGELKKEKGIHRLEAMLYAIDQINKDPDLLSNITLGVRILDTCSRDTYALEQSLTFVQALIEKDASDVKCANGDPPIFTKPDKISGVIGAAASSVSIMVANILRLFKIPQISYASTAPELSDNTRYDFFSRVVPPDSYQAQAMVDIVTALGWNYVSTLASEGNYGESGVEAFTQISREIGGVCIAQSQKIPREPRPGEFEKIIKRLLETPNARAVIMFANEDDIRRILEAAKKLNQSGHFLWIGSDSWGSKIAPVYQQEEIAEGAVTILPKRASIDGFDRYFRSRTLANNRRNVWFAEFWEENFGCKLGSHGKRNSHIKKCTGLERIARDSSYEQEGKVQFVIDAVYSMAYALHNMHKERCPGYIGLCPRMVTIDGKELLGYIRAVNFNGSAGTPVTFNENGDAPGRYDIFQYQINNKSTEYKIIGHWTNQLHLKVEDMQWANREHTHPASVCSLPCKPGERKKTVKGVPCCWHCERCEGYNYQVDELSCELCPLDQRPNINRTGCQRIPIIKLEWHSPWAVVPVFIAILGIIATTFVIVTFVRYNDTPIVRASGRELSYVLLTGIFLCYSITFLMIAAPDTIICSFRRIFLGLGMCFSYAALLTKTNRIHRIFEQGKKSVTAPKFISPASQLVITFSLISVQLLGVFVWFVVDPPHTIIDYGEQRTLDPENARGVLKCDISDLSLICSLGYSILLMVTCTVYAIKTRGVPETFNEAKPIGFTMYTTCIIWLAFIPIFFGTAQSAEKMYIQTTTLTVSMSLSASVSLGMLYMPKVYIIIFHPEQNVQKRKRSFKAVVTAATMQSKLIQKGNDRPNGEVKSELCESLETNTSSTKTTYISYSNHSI
COC(=O)Cc1n[nH]c(=O)c2ccccc12 showed a z-score of 0.456. Work on Cc1ccc(N(CCCCN2C(=O)c3ccccc3C2=O)C(=O)c2ccc(Cl)s2)cc1 yielded a z-score of -0.0355. O=C1C2CC=C(Cl)CC2C(=O)N1CC1OCCc2ccccc21 (stereo unspecified) was tested, and the z-score was -0.4. O=C(Nc1ccccc1)c1cnc2n(c1=O)CCS2 gave a z-score of -0.146. COC(=O)/C(=C/Nc1ccc(O)cc1)[N+](=O)[O-] showed a z-score of -0.539. Cc1ccc(C(C(=O)NC(C)(C)C)N(C(=O)c2csnn2)C2CC2)cc1 (stereo unspecified) showed a z-score of 0.0476. Cc1ccc(-n2cc[nH]c2=S)cc1C showed a z-score of 1.42. COc1ccc(Cl)cc1S(=O)(=O)N1CCN(C(=O)c2ccco2)CC1 gave a z-score of 0.155. Compound CCC(Sc1nc(-c2ccccc2)c(C#N)c(=O)[nH]1)C(=O)Nc1nnc(C)s1 (stereo unspecified) has a z-score of -0.445. For CCn1c(SCc2nc(N)nc(N3CCCCC3)n2)nc2c1c(=O)n(C)c(=O)n2C, the z-score was 0.023. Compound COc1ccc(NC(=O)C2CCCN2C(=O)NC2CCCCC2)cc1OC (stereo unspecified) has a z-score of -0.204. Cc1ccc(C(=O)Cn2cnc3ccccc3c2=O)cc1 was tested, and the z-score was 0.192. With CC(C)(C)NS(=O)(=O)c1ccc(CCC(=O)NCc2ccco2)cc1 the z-score was -0.202. Compound CCOC(=O)c1c(N)sc(C(=O)N(C)C)c1C has a z-score of -1.17. With O=C(Nc1ccccc1)C(c1ccccc1)C1CCCC1 (stereo unspecified) the z-score was -0.474. Work on COc1cc(C(=O)NCC(c2cccnc2)N2CCN(c3ccccc3)CC2)cc(OC)c1OC (stereo unspecified) yielded a z-score of -0.219. Cc1nn(C)c(C)c1/C=N/NC(=O)C(C)(C)Oc1ccc(Cl)cc1 gave a z-score of -0.101. Compound CCC(CC)NC(=O)c1oc2ccccc2c1COc1ccccc1 has a z-score of -0.219. Oc1ccc(Oc2ncc(Cl)cc2Cl)cc1 gave a z-score of 0.0122. Compound CCOC(=O)c1nn(-c2ccc(C)c(C)c2)c(=O)c2c(N)scc12 has a z-score of -0.137. For CS(=O)(=O)N(CC(=O)NCc1ccc(Cl)cc1)C1CCCCC1, the z-score was -0.143. Work on CC(=O)Oc1ccc(C(C)=O)c2c1OCCO2 yielded a z-score of -0.119. CCOC(=O)c1cn(CC(=O)Nc2ccccc2C(=O)OCC)nn1 was tested, and the z-score was -0.238. In the case of CN(C)S(=O)(=O)c1cc(S(=O)(=O)N(C)C)c(Cl)cc1N, the z-score is reported as -0.0713. For CCOC(=O)c1[nH]c2ccc(F)cc2c1NC(=O)c1cc(OC)c(OC)c(OC)c1, the z-score was -0.171. CCOC(=O)N1CCN(C(=O)/C(=C/c2ccccc2OC)NC(=O)c2ccccc2)CC1 gave a z-score of 0.0249. CCCNC(=O)NC(=O)COC(=O)c1oc2ccc(OCC)cc2c1C was tested, and the z-score was -0.035. Work on CCCn1nnc(NC(=O)C(C)Oc2ccc(Cl)cc2Cl)n1 (stereo unspecified) yielded a z-score of -1.49. Work on CCN1CCN(C(=O)C2CCC(CNS(=O)(=O)c3ccccc3)CC2)CC1 (stereo unspecified) yielded a z-score of -0.0637. Cc1ccc(S(=O)(=O)NC(=O)c2cc(C)n(-c3ccccc3)c2C)cc1 showed a z-score of 0.152. CC(=O)Nc1nc(C)c(S(N)(=O)=O)s1 gave a z-score of -0.798. Compound Nc1nc(SCC(=O)NC2CCCCCC2)[nH]c(=O)c1-c1ccccc1 has a z-score of -0.168. Cc1ccc(-c2nnc(-c3ccncc3)n2-c2ccc(C)cc2)cc1 gave a z-score of -0.768. Work on c1ccc2cc(-c3csnn3)ccc2c1 yielded a z-score of 0.8. For Cc1ccccc1-c1cc(C(=O)Nc2sc(C)c(C)c2C(N)=O)c2ccccc2n1, the z-score was -0.19. Work on COc1cccc(/C=C/C(=O)OCC(=O)NCC2CCCO2)c1OC (stereo unspecified) yielded a z-score of -0.054. In the case of COC(=O)c1c(C(=O)OC)c(C)n(Cc2cccnc2)c1C, the z-score is reported as 0.679. Work on O=C1CC(C(=O)O)S/C(=N\NC(=O)c2ccccc2)N1 (stereo unspecified) yielded a z-score of 0.0537. Compound O=C(CNC(=S)N(Cc1ccccc1F)C1CCCCC1)NC1CC1 has a z-score of -0.244. CCOc1cc(-c2nc3cc(C)ccn3c2NCC2CCCO2)ccc1O (stereo unspecified) showed a z-score of -0.709. Nc1nonc1C(=O)NC(c1ccccc1)c1ccccc1 was tested, and the z-score was -0.122. For CCOC(=O)N1CC=C2C(C#N)=C(N)C(C#N)(C#N)[C@H](c3cccs3)[C@H]2C1, the z-score was -0.568. For NC(=S)N/N=C/C=C/c1ccccc1, the z-score was 0.0971. With CCOc1cc(C(=O)O)cc(Cl)c1OCC#N the z-score was -0.377. O=C(COC(=O)CCc1c[nH]c2ccccc12)Nc1cc([N+](=O)[O-])ccc1Cl showed a z-score of -0.592. CC(C)(C)c1ccc(-c2nnc(SCC(=O)c3ccc4c(c3)OCCO4)o2)cc1 gave a z-score of -0.0897. CCCn1c(SCC(=O)Nc2ccccc2C(=O)OC)nc2c1c(=O)n(C)c(=O)n2C was tested, and the z-score was -1.51. Nc1nc(C2CC(=O)OC23CCCCC3)cs1 (stereo unspecified) was tested, and the z-score was 0.0259. N#Cc1cc(C(=O)c2cc(Br)ccc2O)cn(C2CC2)c1=O was tested, and the z-score was -0.413. Work on CCOC(=O)/C=C/C(=O)OCC(=O)Nc1ccc(Cl)cn1 yielded a z-score of -0.0462. Cc1cc(C(F)F)n2nc(C(=O)Nc3ccc(S(=O)(=O)N4CCCC4)cc3)nc2n1 gave a z-score of -0.187. CCCN1CCN(c2nc3c([nH]2)c(=N)ncn3CC(O)CO)CC1 (stereo unspecified) was tested, and the z-score was 0.106. Work on O=C1c2cccc(OCC(=O)N3CCCc4ccccc43)c2CCN1Cc1ccc(F)cc1 yielded a z-score of -0.144. In the case of COC(=O)c1cc(CSc2nc3ccccc3[nH]2)oc1C, the z-score is reported as -0.389. Compound CCC(Sc1ncccc1C(=O)Oc1cccc([N+](=O)[O-])c1)C(=O)Nc1ccccc1OC (stereo unspecified) has a z-score of -0.0708. COC(=O)CN(C(=O)CSc1nnc(-c2cccc(OC)c2)o1)c1ccc(OC)cc1 gave a z-score of -0.667. CCOC(=O)c1c(NC(=O)c2cccnc2)sc(C)c1C was tested, and the z-score was -1.59. Work on O=C(NCC(=O)N(Cc1ccc(F)cc1)C(C(=O)NC1CCCC1)c1ccco1)c1ccco1 (stereo unspecified) yielded a z-score of -0.201. For CCc1c(C(=O)NNC(=S)NCCc2ccccc2)csc1C, the z-score was 0.117. In the case of Cc1cc(C)n(CC(O)Cn2c3ccccc3c3ccccc32)n1 (stereo unspecified), the z-score is reported as 0.376. O=C(OCC1CC(c2ccccc2)=NO1)c1ccc(Br)cc1 (stereo unspecified) was tested, and the z-score was 0.507. In the case of CCc1ccc(NC(=O)Nc2ccc3c(c2)N(C)C(=O)CS3)cc1, the z-score is reported as 0.0512. With C=CCOc1cccc(C2c3c(oc4ccccc4c3=O)C(=O)N2c2ccccn2)c1 (stereo unspecified) the z-score was 1.94. In the case of CSCCC(NC(N)=O)C(=O)NCc1ccc(Cl)cc1 (stereo unspecified), the z-score is reported as 0.0751. Work on COC(=O)c1ccccc1NC(=O)CSc1nnc(-c2ccc(OC)cc2)n1C yielded a z-score of 1.2. Compound Cc1cc(C(=O)COC(=O)c2cc(Cl)ccc2N)c(C)n1Cc1ccco1 has a z-score of -0.451. Cc1cc2nc3c(nc2cc1C)C1(C(=O)N(C)C)CCC3(C)C1(C)C (stereo unspecified) was tested, and the z-score was -0.192. With Cn1c(=O)c(=O)n(C)c2cc(S(=O)(=O)N3CCCCCC3)ccc21 the z-score was -1.42. Compound CC(=O)N(C)c1ccc(NC(=O)COc2ccc(Br)cc2C)cc1 has a z-score of -0.519. For COC(=O)CSc1ncnc2c1sc1nc(N3CCOCC3)c3c(c12)CCCC3, the z-score was -0.126. CC1CCN(C(=O)CSCc2ccc(Cl)cc2)CC1 gave a z-score of -0.284.
